Test results reported in paper PMC12136788.
The other results are listed elsewhere or left out.

T1: UNK ZnF1-3 (human, UniProt Q9C0B0 31-174)
T1 sequence: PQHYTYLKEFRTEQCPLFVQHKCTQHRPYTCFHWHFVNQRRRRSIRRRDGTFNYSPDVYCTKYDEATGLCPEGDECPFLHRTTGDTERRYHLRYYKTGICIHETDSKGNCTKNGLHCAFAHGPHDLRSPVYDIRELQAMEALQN

B1: chr14:59828787:59828788:+_ENSMUSG00000035469_ENSMUST00000043227|mus_hu|motif|central (ssRNA)
RNA: GGGAGUUCUACAGUCCGACGAUCGAGUGAAGAUGGGCCACUUUCCGACAUCCACCAUGACUCUGGCUUCAAGCAAUUCCGGUAAAUAAGCCGACAUCUCUGAGUCCAGGAGGUUGAGGCUGCAGUGAGCCGUGUUCACACCACCAACAGAGGAUUGAGCAUCA
B2: 6917638_6917758_248_5pUTR_ENSMUSG00000041272_ENSMUST00000039987|mouse|control|control (ssRNA)
RNA: GGGAGUUCUACAGUCCGACGAUCUUCACUCUCACAUCAAGCAACUCCUUUUCUUUUCCUUUUUGAAAAAAAAAAAAAAAAAAAAAGUGCUCAGAAAAAAAAAAAAAAGCUCAGACGGAACAGAGAGGCGUCUGGGCUCAGGAGCAACAGAGGAUUGAGCAUCA
B3: chr11:46405157:46405158:+_ENSG00000110492_ENST00000395566|hu_hu|hu_hu_hu_mus_False|58_98 (ssRNA)
RNA: GGGAGUUCUACAGUCCGACGAUCCCCUCCCCACUUUGGCUGGGGAGUGUGGGCGUGAGAGGACAGGCGUGAUUGACAAAGCUAACGGGAAGACAAAAGGCACUGGUGGGUUAUAUCUUGGGCCUGUGGGAGAGGAGGGCUCCGCAACAGAGGAUUGAGCAUCA
B4: 49097590_49098609_1169_CDS_ENSG00000008294_ENST00000262013|human|control|control (ssRNA)
RNA: GGGAGUUCUACAGUCCGACGAUCUUCUGACUUUUCUUCAUUUUCAGCAGAGCCAGUAGAUACAUUUCUAGUUUCCUGGGCUACCUGUACUUCAAUGUGUUUGCUUAUCUCUGAUUUAUUUGGCGCAUCUGUAACCUUCACAAACAACAGAGGAUUGAGCAUCA
B5: chr5:71493949:71493950:+_ENSG00000131711_ENST00000296755|hu_mus|FALSE|FALSE (ssRNA)
RNA: GGGAGUUCUACAGUCCGACGAUCUGGAGACAUUUCUGUUUCCUGGAACGUGGUAGGUGUUUGCACCACAGAAACGGACAGGGAGUCAUCAACUUCUGUGGAAUGUGGAGAACCCACCUCGGCAUGCAGAGAAGGAGACACGUCCAACAGAGGAUUGAGCAUCA
B6: chr15:76588000:76588001:-_ENSG00000140374_ENST00000560595|hu_mus|FALSE|FALSE (ssRNA)
RNA: GGGAGUUCUACAGUCCGACGAUCGGACACUUCACCUCCAAGACGUCCAGCUGCAGUGAUAGUAUUUAGAGUAAUGGGUGCUAGGGAAUCAUUUGCAUGCUCAGCUAUUACCAAGGUACUCUGAAAACGGAGCAAUGAGGCCGCCAACAGAGGAUUGAGCAUCA
B7: chr1:220276048:220276049:+_ENSG00000067704_ENST00000302637|hu_hu|hu_hu_hu_mus_True|58_108 (ssRNA)
RNA: GGGAGUUCUACAGUCCGACGAUCGCAAACAGCUUCAUUGGCGGGAAUUGUCCAAGGCUGGGUGGUCCAAACUAAAAUACUAACAGGGGAUGAGGCAUCUGUAAGAGACUCCAACUUCGGAGGAGGUCUCAGGAGGGGGAAUCUCAACAGAGGAUUGAGCAUCA
B8: chr2:48026839:48026840:+_ENSG00000116062_ENST00000540021|hu_hu|motif|central (ssRNA)
RNA: GGGAGUUCUACAGUCCGACGAUCAUAGUGUGCCACUAGAGUCCUAAAUCUCGAACAAUGGCGAUCAUCUGAAAACUGACCGGUGAAAAACUUUCCCAGUGAAGUAUCAACAAAGCACACACCAUAUGCACGAGUAUGGCCAGACAACAGAGGAUUGAGCAUCA
B9: chr5:162869536:162869537:+_ENSG00000113328_ENST00000340828|hu_hu|motif|central (ssRNA)
RNA: GGGAGUUCUACAGUCCGACGAUCAUAAUCCAGUUAAGGGACCAUUUCAGGAAUUGUUGGAAGGUGAGUUAUUCUGUAGUAGCGGUGCUUCAAUUGCCGUGCAGUACGCCCAGAAACAAUCCAUUUCAACUUCUGAACAUUUGGCAACAGAGGAUUGAGCAUCA
B10: chr14:89338683:89338684:+_ENSG00000165533_ENST00000346301|hu_hu|hu_hu_hu_mus_False|48_78 (ssRNA)
RNA: GGGAGUUCUACAGUCCGACGAUCGUGGUUGUUGUGGACCAGGGCCAGCCUGAAGCACUGAUGGGCCAAGUUUGUAUCUCCGAUUCCCACAGCUACAUGCCCCAGGUUGUACCAGACAUCAGCUGCCUCUUCUUCAUUUUCAGCCAACAGAGGAUUGAGCAUCA
B11: chr13:97419175:97419176:-_ENSMUSG00000021670_ENSMUST00000022176|mus_mus|FALSE|FALSE (ssRNA)
RNA: GGGAGUUCUACAGUCCGACGAUCUGAAACUUUACAUACAACAGCAAAGGCAAUCUUCCACAAUAAUACUGACACAAUCACUAAGAGGCUCCCAUGCUGCCGCGGCACUCUUGGAAUGUCUUUCAGAGUCCAUCUUCUACACAACAACAGAGGAUUGAGCAUCA
B12: 31071505_31071625_3404_3pUTR_ENSMUSG00000000194_ENSMUST00000056433|mouse|control|control (ssRNA)
RNA: GGGAGUUCUACAGUCCGACGAUCCCCAUUCCCCCGCCAUGCCUGGCUUCCCACCUACAGCAGUUCCAGGGCAAGACUUGGGAGGAUACUGCUGUAGCACACCUCCCAGCCCGUGCACCCAUGCCCUGGAAGGAGCAGGCUGUCCAACAGAGGAUUGAGCAUCA
B13: chr9:3385818:3385819:+_ENSMUSG00000025899_ENSMUST00000053407|mus_hu|FALSE|FALSE (ssRNA)
RNA: GGGAGUUCUACAGUCCGACGAUCGAUUUACUACAUUUAGUAGCACUUUACUAAAAAACUAUUAUCUUCAAAAUCCUGGGCUCUUACCCAAGAAUUACAAACACUGCACAAACUGCUUCAAUCACUUUUAGAAACCACCUCUCCCAACAGAGGAUUGAGCAUCA
B14: chr10:1038518:1038519:+_ENSG00000107937_ENST00000545048|hu_hu|hu_hu_hu_mus_False|28_28 (ssRNA)
RNA: GGGAGUUCUACAGUCCGACGAUCCAGUCUGUCAUGGUAAUUCUGUUGAGUAAAUUUGACUUUUCUCAUAUAAAAAUGUCGAAUCCGAUGAAUUUGAUAAUGUUUAUGAAUAACGGUUGGAGUCUUUCGUUGAGUCUUGGAUAACAACAGAGGAUUGAGCAUCA

biological target: T1, UNK ZnF1-3; experiment: nsRBNS (natural sequence RNA bind-n-seq); RBNS binding buffer (assumed for nsRBNS): 25 mM Tris pH 7.5, 150 mM KCl, 3 mM MgCl2, 0.01% Triton X-100, 500 ug/ml BSA, 20 U/ml SUPERase-In, 4 C; UNK is unkempt and MSI1 is Musashi-1; names of the RNAs are library labels; protein concentration not given here; high values mean tight binding

Binder	binding signal [enrichment R]
B1	1.02
B2	1.01
B3	2.32
B4	0.473
B5	0.912
B6	1.4
B7	2.09
B8	1.25
B9	0.651
B10	0.76
B11	1.16
B12	0.746
B13	1.34
B14	0.717
